Reference: patent publication US20100017897A1 (CHILDREN S HOSPITAL OF PHILADELPHIA, published 2010)

Molecular target: T1, cytosolic domain of human PRRG4 (human, UniProt Q9BZD6 139-226)
T1 construct: Expressed in insect cells; also called cytosolic hPPRG4; cystosolic domain of hPPRG4; not shown: purified by HA and histidine columns, so HA and His tags are implied
T1 sequence: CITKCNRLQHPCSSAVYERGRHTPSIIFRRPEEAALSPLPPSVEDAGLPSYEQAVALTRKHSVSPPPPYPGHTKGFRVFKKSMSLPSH
Assay: SH3 domain array probed with purified cytosolic hPRRG4; listed as a hit
Description: The cystosolic domain of hPPRG4 was expressed in insect cells and proteins were purified by HA and histidine columns. Interactions of cytosolic hPPRG4 with different SH3 and WW domains were tested by incubating purified hPRRG4 proteins with arrays containing SH3 and WW domains of several proteins. After incubation, PRRG4 bound to several proteins, most of which are non-receptor tyrosine kinases or scaffolding proteins. These newly identified binding partners provide valuable therapeutic targets for the isolation and characterization of therapeutic agents that impact PRRG4 mediated oncogenesis.

- binding result: binds
B1: Hemopoietic cell kinase: SRC Kinase (other, UniProt P08631 78-138, looked up)
chain: SEDIIVVALYDYEAIHHEDLSFQKGDQMVVLEESGEWWKARSLATRKEGYIPSNYVARVDS
notes: domain: SH3 domain; Array spot; also called HCK
